This note sets out measurements from PMC9911399, “Two distinct binding modes provide the RNA-binding protein RbFox with extraordinary sequence specificity”.

T1: RBFOX1 RRM RbFoxmut (Fox-RRM*) (Homo sapiens, UniProt Q9NWB1 109-208, R118D;E147R;N151S;E152T)
T1 sequence: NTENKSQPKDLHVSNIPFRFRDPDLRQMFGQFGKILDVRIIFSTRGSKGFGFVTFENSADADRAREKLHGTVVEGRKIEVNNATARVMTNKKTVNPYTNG

B1: UUUUUAU (DNA:RNA)
RNA: GGGAGACCGGAAUUCAGAUUGUCCUUUUUAUUUAAAUCCCGUCGUAGCCACCA
DNA 1: CAATCTGAATTCCGGTCTCCC
DNA 2: TGGTGGCTACGACGGGATT
B2: GACGGGG (DNA:RNA)
RNA: GGGAGACCGGAAUUCAGAUUGUCCGACGGGGUUAAAUCCCGUCGUAGCCACCA
DNA 1: CAATCTGAATTCCGGTCTCCC
DNA 2: TGGTGGCTACGACGGGATT
B3: CCGUGUG (DNA:RNA)
RNA: B2 RNA with G25C, A26C, C27G, G28U, G30U
DNA 1: CAATCTGAATTCCGGTCTCCC
DNA 2: TGGTGGCTACGACGGGATT
B4: GCGCUUA (DNA:RNA)
RNA: B2 RNA with A26C, C27G, G28C, G29U, G30U, G31A
DNA 1: CAATCTGAATTCCGGTCTCCC
DNA 2: TGGTGGCTACGACGGGATT
B5: ACCUAGU (DNA:RNA)
RNA: B2 RNA with G25A, A26C, G28U, G29A, G31U
DNA 1: CAATCTGAATTCCGGTCTCCC
DNA 2: TGGTGGCTACGACGGGATT
B6: CUCAUAU (DNA:RNA)
RNA: B1 RNA with U25C, U27C, U28A
DNA 1: CAATCTGAATTCCGGTCTCCC
DNA 2: TGGTGGCTACGACGGGATT
B7: CAUGGGC (DNA:RNA)
RNA: B2 RNA with G25C, C27U, G31C
DNA 1: CAATCTGAATTCCGGTCTCCC
DNA 2: TGGTGGCTACGACGGGATT
B8: CACUAAC (DNA:RNA)
RNA: B2 RNA with G25C, G28U, G29A, G30A, G31C
DNA 1: CAATCTGAATTCCGGTCTCCC
DNA 2: TGGTGGCTACGACGGGATT
B9: AGAAACA (DNA:RNA)
RNA: GGGAGACCGGAAUUCAGAUUGUCCAGAAACAUUAAAUCCCGUCGUAGCCACCA
DNA 1: CAATCTGAATTCCGGTCTCCC
DNA 2: TGGTGGCTACGACGGGATT
B10: CUGAAUG (DNA:RNA)
RNA: B9 RNA with A25C, G26U, A27G, C30U, A31G
DNA 1: CAATCTGAATTCCGGTCTCCC
DNA 2: TGGTGGCTACGACGGGATT
B11: AUCUGGU (DNA:RNA)
RNA: B2 RNA with G25A, A26U, G28U, G31U
DNA 1: CAATCTGAATTCCGGTCTCCC
DNA 2: TGGTGGCTACGACGGGATT
B12: ACUGGUG (DNA:RNA)
RNA: B2 RNA with G25A, A26C, C27U, G30U
DNA 1: CAATCTGAATTCCGGTCTCCC
DNA 2: TGGTGGCTACGACGGGATT
B13: CAAAGUC (DNA:RNA)
RNA: B9 RNA with A25C, G26A, A29G, C30U, A31C
DNA 1: CAATCTGAATTCCGGTCTCCC
DNA 2: TGGTGGCTACGACGGGATT
B14: GAAGGCU (DNA:RNA)
RNA: B2 RNA with C27A, G30C, G31U
DNA 1: CAATCTGAATTCCGGTCTCCC
DNA 2: TGGTGGCTACGACGGGATT
B15: CGCACAC (DNA:RNA)
RNA: B9 RNA with A25C, A27C, A29C, C30A, A31C
DNA 1: CAATCTGAATTCCGGTCTCCC
DNA 2: TGGTGGCTACGACGGGATT
B16: GAGGCCU (DNA:RNA)
RNA: B2 RNA with C27G, G29C, G30C, G31U
DNA 1: CAATCTGAATTCCGGTCTCCC
DNA 2: TGGTGGCTACGACGGGATT
B17: CCUGAUU (DNA:RNA)
RNA: B1 RNA with U25C, U26C, U28G, U29A, A30U
DNA 1: CAATCTGAATTCCGGTCTCCC
DNA 2: TGGTGGCTACGACGGGATT
B18: CAGGAGG (DNA:RNA)
RNA: B2 RNA with G25C, C27G, G29A
DNA 1: CAATCTGAATTCCGGTCTCCC
DNA 2: TGGTGGCTACGACGGGATT
B19: AGUAUCG (DNA:RNA)
RNA: B9 RNA with A27U, A29U, A31G
DNA 1: CAATCTGAATTCCGGTCTCCC
DNA 2: TGGTGGCTACGACGGGATT
B20: UCUCAGG (DNA:RNA)
RNA: B2 RNA with G25U, A26C, C27U, G28C, G29A
DNA 1: CAATCTGAATTCCGGTCTCCC
DNA 2: TGGTGGCTACGACGGGATT

Residue numbers refer to the chain shown, from its start. This is one part of the list.

This assay addresses T1, RBFOX1 RRM RbFoxmut (Fox-RRM*). In words: EMSA; HiTS-Eq, 1 nM pool, 10 min; buffer printed only for the single-RNA assays: 10 mM Tris pH 7.5, 150 mM NaCl, 3.4 mM EDTA, 0.001% NP-40, 30 C. Conditions: tags: His6 N-terminal (pET28a); label: 5' 32P. The method, boiled down:
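Purified wild-type or mutant RbFox RRM at increasing concentrations was equilibrated with 1 nM of 5′-radiolabelled RNA carrying 7 randomized nucleotides for 10 min in 50 µL. Unbound RNA was separated by 8% native PAGE and sequenced. Relative association constants came from read-count changes of each RNA species compared with the control reaction, normalised to the cognate motif.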
(In general: In EMSA bound probe runs differently from free probe, usually more slowly.)
Consider B1, for which the binding signal is 0.111 KA relative to UGCAUGU.

For the molecule B2, the binding signal is 0.0441 KA relative to UGCAUGU. In the case of B3, the binding signal was 0.167 KA relative to UGCAUGU.

In the case of B4, the binding signal was 0.108 KA relative to UGCAUGU. For the molecule B5, the binding signal is 0.14 KA relative to UGCAUGU.

For the molecule B6, the binding signal was 0.113 KA relative to UGCAUGU. Then B7, with 0.0887 KA relative to UGCAUGU; and B8, with 0.098 KA relative to UGCAUGU. For B9 the value was 0.0753 KA relative to UGCAUGU; for B10, 0.915 KA relative to UGCAUGU; for B11, 0.121 KA relative to UGCAUGU.

Take B12: the binding signal is 0.131 KA relative to UGCAUGU.

B13: the binding signal was 0.0454 KA relative to UGCAUGU. With B14, the binding signal is 0.0674 KA relative to UGCAUGU. Then B15, with 0.0785 KA relative to UGCAUGU. For B16 the value was 0.0941 KA relative to UGCAUGU; for B17, 0.0817 KA relative to UGCAUGU. For B18 the value was 0.107 KA relative to UGCAUGU; for B19, 0.293 KA relative to UGCAUGU; for B20, 0.114 KA relative to UGCAUGU.
